Laboratory results as given in article PMC4336329 (PLoS ONE, 2015).
Out of some 310,000 compounds screened, about 14,000 (4.5%) showed an effect of 50% or more. The effect is printed as a negative number. The list shows a part of the results.

Each compound was assayed against human ether-à-go-go-related gene (hERG) potassium channel (human, UniProt Q12809) (assay: primary screen, population patch clamp on CHO cells stably expressing hERG).
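Further: peak tail current of the secondary pulse compared with the same well before compound.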

Chain of human ether-à-go-go-related gene (hERG) potassium channel (Q12809 whole entry, looked up): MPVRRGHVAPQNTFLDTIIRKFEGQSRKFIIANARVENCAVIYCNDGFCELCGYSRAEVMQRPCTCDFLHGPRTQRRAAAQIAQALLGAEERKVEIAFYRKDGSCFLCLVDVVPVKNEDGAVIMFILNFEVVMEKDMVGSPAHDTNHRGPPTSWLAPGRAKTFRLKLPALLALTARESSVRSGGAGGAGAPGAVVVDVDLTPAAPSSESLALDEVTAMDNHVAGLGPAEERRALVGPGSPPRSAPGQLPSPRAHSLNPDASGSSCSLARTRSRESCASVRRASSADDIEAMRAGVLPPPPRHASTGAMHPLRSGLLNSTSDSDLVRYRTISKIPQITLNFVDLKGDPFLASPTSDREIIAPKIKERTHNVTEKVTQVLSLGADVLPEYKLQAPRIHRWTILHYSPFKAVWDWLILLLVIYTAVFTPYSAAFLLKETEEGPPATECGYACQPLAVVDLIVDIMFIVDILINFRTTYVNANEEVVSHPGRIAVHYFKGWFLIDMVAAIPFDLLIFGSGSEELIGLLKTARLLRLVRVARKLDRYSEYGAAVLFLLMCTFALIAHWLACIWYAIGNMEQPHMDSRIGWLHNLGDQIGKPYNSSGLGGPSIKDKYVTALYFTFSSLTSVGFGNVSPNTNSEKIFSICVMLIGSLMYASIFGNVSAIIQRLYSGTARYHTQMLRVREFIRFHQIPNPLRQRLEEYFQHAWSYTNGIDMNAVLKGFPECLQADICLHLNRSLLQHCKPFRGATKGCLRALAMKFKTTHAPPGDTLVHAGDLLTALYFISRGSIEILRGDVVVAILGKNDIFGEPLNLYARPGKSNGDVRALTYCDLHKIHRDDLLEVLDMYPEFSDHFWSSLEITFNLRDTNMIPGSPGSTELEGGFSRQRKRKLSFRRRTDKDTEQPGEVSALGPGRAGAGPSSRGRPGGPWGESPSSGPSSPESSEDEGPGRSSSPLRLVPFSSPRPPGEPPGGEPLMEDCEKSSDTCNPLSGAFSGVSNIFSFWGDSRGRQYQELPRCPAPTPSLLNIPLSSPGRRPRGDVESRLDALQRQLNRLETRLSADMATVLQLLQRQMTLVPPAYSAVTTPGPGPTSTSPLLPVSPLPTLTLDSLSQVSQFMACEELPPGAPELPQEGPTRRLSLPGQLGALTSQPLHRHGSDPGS

SMILES | hERG current change (%, negative = inhibition) at 10uM [%]
Cc1ccc(S(=O)(=O)N2CCC(=O)N(CCOCc3ccc(Cl)cc3)CC2)cc1 | -60.1
COc1ccccc1N1CCN(CC(=O)Nc2ccccc2C(=O)NCCc2ccccc2)CC1 | 101
O=C(OCc1ccccc1)c1ccc(Br)o1 | 8.45
C=CCN(C(=O)Nc1ccc(OC)cc1)c1nnc(-c2ccncc2)s1 | -22.3
COC(=O)c1c(C)oc(C)c1S(=O)(=O)N1CCCCC1 | 9.1
COc1cc2[nH]c(-c3ccc(C)cc3)cc(=O)c2cc1OC | 9.96
COc1ccccc1NS(=O)(=O)c1cc(C(=O)NCC(c2ccco2)N2CCCCC2)ccc1C (stereo not drawn) | -48.6
C=CCOc1ccc(CN(C)CC(O)COc2ccc(CCC(C)=O)cc2)cc1 (stereo not drawn) | -63.6
O=C(CNc1ccc(Br)cc1)Nc1ccc(S(=O)(=O)N2CCCC2)cc1 | -20.1
COc1ccc(S(=O)(=O)NCc2ccncc2)cc1NC(=O)c1ccccc1 | -34.7
O=C(c1ccc2c(c1)OCO2)C1CCCN(Cc2c(F)ccc(F)c2F)C1 (stereo not drawn) | -15.8
O=[N+]([O-])c1ccccc1SN(Cc1ccccc1)c1ccccn1 | 6.93
CCOC(=O)CC(=O)CSc1[nH]c(=O)cc(C)c1C#N | 5.39
CCN(CC(=O)Nc1c(F)cccc1F)C(=O)CNC(=O)c1ccco1 | 1.29
CC1(C)CC(NC(=O)c2cc(S(=O)(=O)N3CCCCC3)ccc2Cl)CC(C)(C)N1 | -26.3
CCOC(=O)C[N+](CC)(CC)CC#Cc1ccccc1 | 0.628
O=c1c2ccccc2c(-c2ccc(O)cc2)nn1-c1cccc(C(F)(F)F)c1 | -6.54
CCNc1cc2oc(=O)c(CN3CCOCC3)c(C)c2cc1C | -11.4
Cc1c(CC(=O)N[C@@H](CCCNC(N)=O)C(=O)O)c(=O)oc2cc3oc4c(c3cc12)CCCC4 | 39.1

SMILES | hERG current change (%, negative = inhibition) at 10uM [%]
CCOc1cccc(C=NCCc2ccc(OC)c(OC)c2)c1O | 12.4
CCOc1cccc2cc(C(=O)NCc3ccccc3)c(=N)oc12 | 3.3
Cc1c(C)c2ccc(OCC(=O)Nc3ccccc3C(N)=O)cc2oc1=O | 0.123
CC1CC(C)CN(C(=O)C2CCN(S(=O)(=O)c3ccc4c(c3)CC(C)N4C(=O)C3CC3)CC2)C1 (stereo not drawn) | -2.32
COc1cc(NC(=O)c2cccc(Br)c2)nc(OC)n1 | 3.34
COC(=O)Nc1nc2ccc(C(=O)c3cccs3)cc2[nH]1 | -2.34
Cc1ccccc1CNC(=O)C(=O)Nc1nccs1 | 52.7
Cc1cccc(Nc2nnc(SCC(=O)NC(=O)CN3CCCC3=O)s2)c1 | 11.4
COc1ccc(Cl)cc1NC(=O)c1[nH]c(C)c(C(C)=O)c1C | 6.22
Cc1cc(C)nc(N2CCC(C(=O)NC3CCCc4ccccc43)CC2)n1 (stereo not drawn) | 17.6
COc1ccc(N2C(=O)/C(=C/c3cccs3)NC2=S)cc1 | 17.3
Cc1ccc(-c2nnc(Nc3ccc(CC(N)=O)cc3)c3ccccc23)cc1S(=O)(=O)NCCO | 13.7
O=C(c1ccccc1)n1nnc2ccccc21 | 0.0333
COc1ccc(CCN2C(=O)c3ccccc3NC2c2cc(Cl)c(O)c(OC)c2)cc1 (stereo not drawn) | -4.85
CC1=C(C(=O)Nc2ccccc2C)C2(CCCC2)C(C(N)=O)C(=O)N1 (stereo not drawn) | 1.79
S=c1[nH]nc(-c2ccncc2)n1/N=C/c1ccccc1Cl | 19.6
CCOC(=O)c1c(C)n(C)c2ccc(OC)c(NS(=O)(=O)c3ccc(Cl)s3)c12 | -5.3
Nc1nnc(/C=C/c2ccccc2)s1 | 21.1
CCOC(=O)N1CCN(C(=O)CCSc2ccc(C)cc2)CC1 | -13.8

SMILES | hERG current change (%, negative = inhibition) at 10uM [%]
COc1ccc(Cl)cc1-c1nc(SCC(=O)NC(C)(C)C)n[nH]1 | -3.68
CCc1cc(=O)n2c([nH]c3ccccc32)c1C#N | 15.2
CN(NC(=O)COc1ccccc1)C1=NS(=O)(=O)c2ccccc21 | 26.1
CCOC(=O)[C@@H]1[C@H]2COc3ccc(Br)cc3[C@H]2N2C(=O)N(c3ccc(F)cc3)C(=O)[C@@]12C | 5.43
Cn1cccc1Cc1nnc(SCC(=O)N2CCOCC2)n1-c1ccc(F)cc1 | 11
Cc1nc(N2CCN(c3ccccc3)CC2)[nH]c(=O)c1C | -1.79
CCOC(=O)c1c(-c2ccccc2)nc2ccc(C)cn12 | -16.9
Cc1ccc(S(=O)(=O)Nc2ccc(C(=O)Nc3cc(C)on3)cc2)cc1 | 1.43
C/C(=N\n1nnnc1Nc1ccccc1)c1ccc(N)cc1 | 13.8
CCN(C(=O)c1cc2ccccc2oc1=O)c1ccccc1 | 0.49
O=C(Nc1ccccc1)OCCCc1ccccc1 | -5.8
COc1ccc(C(C(=O)NC(C)(C)C)N(C(=O)CCC(=O)Nc2cc(C)on2)c2cccc(C)c2C)cc1 (stereo not drawn) | 14.4
Cn1c(OCc2ccco2)nc2c1c(=O)n(Cc1ccc(Cl)c(Cl)c1)c(=O)n2C | -13.1
c1ccc2c(c1)cnc1ccccc12 | -6.13
Cc1nc2sccn2c(=O)c1Cl | -1.99
CCc1nc(-c2ccc(C)nc2OC)no1 | 18.1
Nn1cc(-c2ccccc2)nc1SCC(=O)NCC1CCCO1 (stereo not drawn) | 1.42
C[n+]1ccccc1/C=N/O.[I-] | 2.23
O=C(c1ccc(Cl)c([N+](=O)[O-])c1)N(Cc1cccc(Cl)c1)C1CCS(=O)(=O)C1 (stereo not drawn) | -32.5
